Measurements: article PMC6549151 (2019)

Molecular target: fibronectin (Homo sapiens, UniProt P02751)
Test: spectrofluorometry titration

- Kd: 23.7 nM
B1: GPIIb/IIIa (protein)
chain 1: [gap - about 950 residues]
chain 2: GPNICTTRGVSSCQQCLAVSPMCAWCSDEALPLGSPRCDLKENLLKDNCAPESIEFPVSEARVLEDRPLSDKGSGDSSQVTQVSPQRIALRLRPDDSKNFSIQVRQVEDYPVDIYYLMDLSYSMKDDLWSIQNLGTKLATQMRKLTSNLRIGFGAFVDKPVSPYMYISPPEALENPCYDMKTTCLPMFGYKHVLTLTDQVTRFNEEVKKQSVSRNRDAPEGGFDAIMQATVCDEKIGWRNDASHLLVFTTDAKTHIALDGRLAGIVQPNDGQCHVGSDNHYSASTTMDYPSLGLMTEKLSQKNINLIFAVTENVVNLYQNYSELIPGTTVGVLSMDSSNVLQLIVDAYGKIRSKVELEVRDLPEELSLSFNATCLNNEVIPGLKSCMGLKIGDTVSFSIEAKVRGCPQEKEKSFTIKPVGFKDSLIVQVTFDCDCACQAQAEPNSHRCNNGNGTFECGVCRCGPGWLGSQCECSEEDYRPSQQDECSPREGQPVCSQRGECLCGQCVCHSSDFGKITGKYCECDDFSCVRYKGEMCSGHGQCSCGDCLCDSDWTGYYCNCTTRTDTCMSSNGLLCSGRGKCECGSCVCIQPGSYGDTCEKCPTCPDACTFKKECVECKKFDRGALHDENTCNRYCRDEIESVKELKDTGKDAVNCTYKNEDDCVVRFQYYEDSSGKSILYVVEEPECPKGPD
